Assay results reported in paper PMC4336329 (PLoS ONE, 2015).
The whole screen tested about 310,000 compounds, of which about 2,200 (0.71%) showed an effect of 50% or more. Effects have a minus sign here. The list shows a part of the results.

What follows are molecules tested against human ether-à-go-go-related gene (hERG) potassium channel (human, UniProt Q12809) (assay: primary screen, population patch clamp on CHO cells stably expressing hERG).
human ether-à-go-go-related gene (hERG) potassium channel, sequence (Q12809 whole entry, looked up): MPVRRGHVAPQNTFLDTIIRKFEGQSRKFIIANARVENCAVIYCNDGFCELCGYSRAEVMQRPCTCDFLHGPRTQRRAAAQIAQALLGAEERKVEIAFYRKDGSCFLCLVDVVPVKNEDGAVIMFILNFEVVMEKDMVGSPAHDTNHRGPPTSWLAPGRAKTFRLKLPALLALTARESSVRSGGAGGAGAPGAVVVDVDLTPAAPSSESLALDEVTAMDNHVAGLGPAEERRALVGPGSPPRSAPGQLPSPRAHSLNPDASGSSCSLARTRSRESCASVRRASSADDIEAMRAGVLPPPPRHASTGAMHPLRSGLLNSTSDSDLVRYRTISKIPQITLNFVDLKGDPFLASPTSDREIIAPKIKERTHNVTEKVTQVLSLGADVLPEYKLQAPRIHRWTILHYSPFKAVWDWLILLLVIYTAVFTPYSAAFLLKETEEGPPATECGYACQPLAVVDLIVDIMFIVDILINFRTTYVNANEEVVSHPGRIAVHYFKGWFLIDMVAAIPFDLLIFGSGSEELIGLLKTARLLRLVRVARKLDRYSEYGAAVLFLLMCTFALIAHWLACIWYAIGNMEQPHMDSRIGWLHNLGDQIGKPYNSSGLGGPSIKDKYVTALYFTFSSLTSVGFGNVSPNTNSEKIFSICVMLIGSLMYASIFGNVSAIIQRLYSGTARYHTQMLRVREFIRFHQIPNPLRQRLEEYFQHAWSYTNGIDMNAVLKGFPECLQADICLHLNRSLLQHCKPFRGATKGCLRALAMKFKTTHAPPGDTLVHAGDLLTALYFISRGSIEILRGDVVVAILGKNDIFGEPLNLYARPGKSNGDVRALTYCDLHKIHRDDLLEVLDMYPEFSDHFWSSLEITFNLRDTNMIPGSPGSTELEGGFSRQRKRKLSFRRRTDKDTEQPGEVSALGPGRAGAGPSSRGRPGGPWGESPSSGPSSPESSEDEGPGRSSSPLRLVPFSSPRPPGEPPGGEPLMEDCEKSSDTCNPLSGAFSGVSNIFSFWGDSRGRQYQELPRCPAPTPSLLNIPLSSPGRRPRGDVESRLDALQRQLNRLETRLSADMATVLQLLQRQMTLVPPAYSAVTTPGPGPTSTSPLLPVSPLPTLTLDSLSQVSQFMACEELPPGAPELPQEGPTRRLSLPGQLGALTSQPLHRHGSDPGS

Structure (SMILES) | hERG current change (%, negative = inhibition) at 1uM
CCCNC(=O)CS(=O)Cc1nc(-c2ccc(OC)cc2)oc1C (stereo not shown) | 11.2%
COC(=O)c1ccc(SC2CCCCC2)c([N+](=O)[O-])c1 | 19.4%
CC1(NC(=O)Cc2c(Cl)cccc2Cl)CCS(=O)(=O)C1 (stereo not shown) | 15.3%
C=CC12C=CC=CN1C(C(=O)OC)=C(C(=O)OC)C(C(=O)OC)=C2C(=O)OC (stereo not shown) | 5.35%
COc1ccc(CCN2C(=O)CS/C2=N/NC(=O)c2ccccc2F)cc1OC | -1.19%
COc1cc(NC(=O)c2ccccc2)c(OC)cc1NC(=O)CN1CCOCC1 | 6.98%
O=C(NC1CCCc2ccccc21)c1cccc(Br)c1 (stereo not shown) | 3.46%
COc1ccc(NC(=O)CN(C)C(=O)Cn2cnc3c2c(=O)n(C)c(=O)n3C)cc1 | 2.39%
S=c1[nH]nc(-c2ccc(Cl)cc2)n1CCCN1CCOCC1 | 7.41%
COc1cc(CNCCc2ccc(F)cc2)ccc1OCc1ccc(Cl)nc1.Cl | -39.3%
CC1COc2ccccc2N1C(=O)c1ccc(Cl)nc1 (stereo not shown) | 5.15%
CCCNC(=O)c1nn2c(C(F)(F)F)cc(-c3ccccc3)nc2c1Cl | 3.89%
O=C(NC(=S)NNC(=O)c1ccco1)c1ccc(F)cc1 | 16.8%
C[n+]1cc[nH]c1SCC(=O)c1ccccc1.[Br-] | 3.49%
O=C(Nc1ccc(S(=O)(=O)N2CCCC2)cc1)C1CCN(S(=O)(=O)c2ccc(F)cc2)CC1 | 20.4%
CCCCC[C@H]1CN(C2CCCCC2)C(=O)[C@@H]1CC(=O)NCc1ccc(OC)cc1 | -6.02%
O=C(Cc1cccc(C(F)(F)F)c1)N1CCCC1 | 11.1%
O=C(CSc1ncn[nH]1)c1cc2ccccc2o1 | 5.17%
COc1ccc(-n2nc3c(N4CCC(C(=O)NCc5cccc(C)c5)CC4)nnc(C)c3c2C)cc1 | 13.6%
COc1cc2c(cc1OC)CN(CC(=O)Nc1ccc(Cl)c(S(=O)(=O)N(C)C)c1)CC2 | 6.56%
COc1cc(OC)c(C(=O)OCC(=O)c2cc(C)n(CC3CCCO3)c2C)cc1OC (stereo not shown) | 11.8%
Cc1cc(Cl)ccc1OCC(O)CNCCc1ccc(S(N)(=O)=O)cc1 (stereo not shown) | -58.2%

Structure (SMILES) | hERG current change (%, negative = inhibition) at 1uM
COc1ccc(NCC(=O)n2c(C)c(C)c3ccccc32)cc1 | 10.3%
O=C(C1CC1)N1N=C(c2cccc(Br)c2)CC1(O)C(F)(F)F (stereo not shown) | 8.35%
CC(=O)Nc1ccc(N2C(=O)CC(N3CCN(Cc4ccc5c(c4)OCO5)CC3)C2=O)cc1 (stereo not shown) | 13.3%
COc1cc([N+](=O)[O-])ccc1NC(=O)C[n+]1cccc(C(C)=O)c1.[Cl-] | 16.5%
CC1CCCCC12NC(=O)N(CC(=O)Nc1ccccc1N1CCOCC1)C2=O (stereo not shown) | 2.11%
O=C(NCc1ccco1)C(c1ccccc1)N(C(=O)Cc1cccs1)c1cccnc1 (stereo not shown) | 5.59%
COc1cc(C(=S)N2CCOCC2)ccc1O | 15.8%
COc1ccccc1NC(=O)C1CCCN1C(=O)Nc1ccc(F)cc1 (stereo not shown) | 6.23%
COc1ccc(NC(=O)c2ccc3c(c2)CCN3S(=O)(=O)c2ccccc2)c(OC)c1 | 11.4%
CCn1c(C)nc2cc(S(=O)(=O)Nc3ccc(C)cc3)ccc21 | 18.1%
O=C(/C=C/c1ccccc1)c1ccccc1 | 19.2%
COc1ccccc1-c1cc(N)n[nH]1 | 10.2%
Cc1cc(NC(=O)COC(=O)C2CCN(S(=O)(=O)c3c(Cl)cccc3Cl)CC2)no1 | 2.84%
COC(=O)/C=C1/SC(=NC(=O)c2ccc(OC)cc2)NC1=O | 19.8%
CCCN(C(=O)c1ccc(N2CCCC2=O)cc1)C1CCS(=O)(=O)C1 (stereo not shown) | 9.89%
Nc1ccc(-c2nc3nc(N)nc(N)c3nc2-c2ccc(N)cc2)cc1 | 12.4%
O=C(NCC(=O)N1CCN(c2ccccc2)CC1)c1ccc(Cl)cc1 | 17.8%
C=C(Cl)COc1ccc2c(CC)cc(=O)oc2c1 | -3.72%
CC(=O)c1ccc(OCC(C)C)c(CN2CCCCC2)c1.Cl | -2.06%
O=C(O)COc1ccc(S(=O)(=O)NCCc2ccccc2)cc1 | 5.92%
COc1ccc(CNC(=O)C2CCNCC2)cc1 | 12.2%
COc1cccc(CN2CC(C(=O)NCCn3ccc(C)n3)CCC2=O)c1 (stereo not shown) | 12.3%

Structure (SMILES) | hERG current change (%, negative = inhibition) at 1uM
O=C(NCCC(=O)N1CCN(Cc2c(F)cccc2Cl)CC1)c1ccc(Cl)cc1 | -4.72%
COc1ccc(/C=N/NC(N)=S)cc1OC(=O)c1cccc2ccccc12 | 5.11%
CC(=O)N1CCN(S(=O)(=O)c2cccc(C(=O)OCC(=O)N(CCC#N)c3ccc(F)cc3)c2)CC1 | 18.2%
CCN(CC)CCCN1C(=O)CSC1c1ccc([N+](=O)[O-])cc1.Cl (stereo not shown) | -74.4%
CCS(=O)(=O)N1CCC(C(=O)NCC2CCCO2)CC1 (stereo not shown) | 5.05%
O=c1[nH]c(CN2CCN(S(=O)(=O)c3ccccc3C(F)(F)F)CC2)nc2sc3c(c12)CCCC3 | 17.4%
Cc1csc2nc(CNC(=O)c3cccc(C(F)(F)F)c3)cn12 | 3.48%
CC(C)NS(=O)(=O)c1ccc(OCC(=O)N2CCCC2)c(Cl)c1 | 6.16%
CN(C)CCCNC(=O)c1ccccc1Oc1ccccc1 | -2.29%
O=C(NC(=S)Nc1ccc2[nH]c(=O)[nH]c2c1)c1cncc(Br)c1 | 12.2%
C=CCN(c1ccccc1)S(=O)(=O)c1cccc(C(=O)Nc2nc3ccccc3[nH]2)c1 | 6.46%
Cc1cccc(C)c1N1CC(=O)N(c2c(C)cccc2C)CC1=O | 6.43%
Cc1nc2sc3c(NCc4ccco4)ncnc3c2c2c1COC(C)(C)C2 | 12.4%
Cc1ccccc1NC(=O)CN(C)S(=O)(=O)c1cccc2cccnc12 | 0.118%
COc1ccc(NC(=O)c2ccc(CN(c3cc(Cl)ccc3C)S(=O)(=O)c3ccccc3)cc2)cc1OC | 2.14%
CC(C)CC(NC(N)=O)C(=O)Nc1cccc([N+](=O)[O-])c1 (stereo not shown) | 8.11%
Cc1ccc(S(=O)(=O)CCC(=O)N2CCN(c3ccccc3F)CC2)cc1 | 8.62%
O=C(Nc1ccc(Br)cc1Cl)c1ccc2c(=O)n3c(nc2c1)CCC3 | 3.46%
CCCc1cc2c(=O)c(-c3ccc4c(c3)OCCO4)coc2cc1OS(C)(=O)=O | 15.3%
COc1ccc(-c2cc(=Nc3ccc(C)cc3)c3ccccc3o2)cc1 | 8.29%
Cc1cc(C)n(-c2nnc(C)n2/N=C/c2ccccc2OCc2ccccc2Cl)n1 | -2.75%
O=C(O)c1cc(N/N=C/c2cccs2)ccc1Cl | 18.1%

Structure (SMILES) | hERG current change (%, negative = inhibition) at 1uM
O=C(CSc1n[nH]c(-c2ccccn2)n1)Nc1cccc(Cl)c1 | 10.6%
COC(=O)C(C)NC(=O)C12CC3CC(C1)CC(c1ccc(C)cc1)(C3)C2 (stereo not shown) | 9.06%
CCOC(=O)c1cccc(NS(=O)(=O)Cc2ccccc2)c1 | 7.43%
CCOC(=O)CCN1C(=O)c2ccccc2Sc2ncccc21 | 12.1%
Nc1c(C(=O)Nc2ccccc2)nnn1-c1ccc2c(c1)OCCO2 | 14.1%
Cc1ccc(/C=N/NC(=O)Cn2cnc3ccccc32)o1 | 8.67%
CN(Cc1nc(Cc2ccccc2F)no1)Cc1cccc2ncccc12 | -9.06%
CCN(CC)C(=O)CSc1ccccc1N | 6.53%
CCN1C[C@]2(COC)CC[C@H](OC)[C@@]34C1[C@]1(OCO[C@@]15C[C@H](OC)[C@H]1C[C@@H]3[C@@H]5[C@H]1OC)[C@@H](O)[C@H]24 | 14.5%
O=C(c1ccc2c(=O)n3c(nc2c1)CCCCC3)N1CCc2ccccc21 | 0.473%
Cc1cccc(N2CCN(S(=O)(=O)c3cccs3)CC2)c1C | -2.42%
C/C(CC(C)C)=N\NS(=O)(=O)c1ccc(C)c([N+](=O)[O-])c1 | 6.48%
Cc1c(Cl)cccc1NC(=O)Cc1ccc([N+](=O)[O-])cc1 | 11.4%
COc1cc(NC(=S)N2CCN(C)CC2)cc(OC)c1 | 14.3%
COC(=O)CCC(=O)c1oc2ccccc2c1N | -0.856%
CCOc1cc(CNC2CCCC2)cc(Cl)c1OCc1ccccc1.Cl | 8.95%
COc1ccc(-c2csc3ncnc(N4CCN(C(=O)c5ccco5)CC4)c23)cc1 | -12.1%
Cc1nc2nc(SCC(=O)C(C)(C)C)[nH]c2cc1Br | 5.97%
COc1ccc(S(=O)(=O)N2CCC(C(=O)NCCCc3ccccc3)CC2)cc1 | 7.18%
COc1ccc(OC)c(C(=O)c2coc3ccc(OCC(=O)O)cc23)c1 | 8.49%
CCC(Sc1nnnn1-c1ccccc1)C(=O)Nc1nc2ccccc2s1 (stereo not shown) | -5.12%
COc1ccc(CNC(=O)c2ccc(CS(=O)c3ccccc3)o2)cc1 (stereo not shown) | 10.4%
